One block for each binder: values may come before it.
Assays:
[1] = target: T1, IL-2R on murine splenocytes (NK cells, CD8 T cells, Treg cells) (mouse, UniProt P01590 22-268; P16297 27-539; P34902 23-369); experiment: cell-based or functional assay
T1 sequence (looked up) 1: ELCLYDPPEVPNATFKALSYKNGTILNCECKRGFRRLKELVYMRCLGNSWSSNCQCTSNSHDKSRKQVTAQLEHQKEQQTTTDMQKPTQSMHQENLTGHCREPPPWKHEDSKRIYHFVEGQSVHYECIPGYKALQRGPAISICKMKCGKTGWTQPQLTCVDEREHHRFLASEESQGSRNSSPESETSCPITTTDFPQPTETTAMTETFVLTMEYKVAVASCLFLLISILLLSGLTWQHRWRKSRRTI
T1 sequence (looked up) 2: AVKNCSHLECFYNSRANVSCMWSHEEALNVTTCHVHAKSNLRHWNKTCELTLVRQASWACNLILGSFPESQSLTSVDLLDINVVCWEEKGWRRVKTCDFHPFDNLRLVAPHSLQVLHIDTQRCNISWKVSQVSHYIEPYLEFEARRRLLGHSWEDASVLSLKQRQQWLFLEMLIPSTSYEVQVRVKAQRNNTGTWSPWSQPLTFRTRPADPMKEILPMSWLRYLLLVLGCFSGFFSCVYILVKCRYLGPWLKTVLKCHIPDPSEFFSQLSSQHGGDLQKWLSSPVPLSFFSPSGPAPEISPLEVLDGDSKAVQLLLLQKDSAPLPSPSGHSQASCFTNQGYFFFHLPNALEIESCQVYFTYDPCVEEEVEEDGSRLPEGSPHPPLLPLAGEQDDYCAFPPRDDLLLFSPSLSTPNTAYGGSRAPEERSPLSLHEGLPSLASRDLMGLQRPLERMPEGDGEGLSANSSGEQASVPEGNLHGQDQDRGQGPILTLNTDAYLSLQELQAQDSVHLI
T1 sequence (looked up) 3: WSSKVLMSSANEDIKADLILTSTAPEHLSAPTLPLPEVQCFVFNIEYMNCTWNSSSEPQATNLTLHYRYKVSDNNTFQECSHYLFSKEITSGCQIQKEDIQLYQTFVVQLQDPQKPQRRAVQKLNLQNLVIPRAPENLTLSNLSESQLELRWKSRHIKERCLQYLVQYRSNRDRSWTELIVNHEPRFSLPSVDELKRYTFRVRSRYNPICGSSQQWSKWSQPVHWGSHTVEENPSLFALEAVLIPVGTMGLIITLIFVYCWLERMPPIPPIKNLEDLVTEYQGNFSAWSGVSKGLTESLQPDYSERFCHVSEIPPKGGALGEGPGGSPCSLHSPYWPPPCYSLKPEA

[2] = target: T1, IL-2R on murine splenocytes (NK cells, …); experiment: cell-based or functional assay; remark: listed apart in the source
[3] = target: T2, His-tagged recombinant CD25 (UniProt P01589 22-213, limits assumed); experiment: SPR, His-CD25 captured
T2 construct: also called IL-2R alpha chain
T2 sequence (looked up): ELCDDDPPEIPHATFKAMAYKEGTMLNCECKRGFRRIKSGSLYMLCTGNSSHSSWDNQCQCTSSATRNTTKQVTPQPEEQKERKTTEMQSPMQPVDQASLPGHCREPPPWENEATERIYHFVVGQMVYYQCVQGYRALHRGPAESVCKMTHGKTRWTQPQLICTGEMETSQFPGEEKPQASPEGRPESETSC

EC50 pSTAT5 on CD8 cells (mouse splenocytes) [1]: 17.9 nM
EC50 pSTAT5 on NK cells (mouse splenocytes) [1]: 2.88 nM
EC50 pSTAT5 on Treg cells (mouse splenocytes) [1]: 4.21 nM
EC50 CD8 cells (pSTAT5, mouse splenocytes) [2]: 4.6 nM
EC50 NK cells (pSTAT5, mouse splenocytes) [2]: 1.2 nM
EC50 Treg cells (pSTAT5, mouse splenocytes) [2]: 5.91 nM
B1: QTY065 (other)
heavy: EVQLVQSGAEVKKPGESLKISCKGSGYAFTNYLIEWVRQMPGKGLEWMGVINPGSGGTNYNEKFKGQVTISADKSISTAYLQWSSLKASDTAMYYCARWRGEGYYAYFDVWGQGTTVTVSSASTKGPSVFPLAPSSKSTSGGTAALGCLVKDYFPEPVTVSWNSGALTSGVHTFPAVLQSSGLYSLSSVVTVPSSSLGTQTYICNVNHKPSNTKVDKRV[letters of human IgG1 Fc with changes left out]
light: AIRLTQSPSSFSASTGDRVTITCKASQSVDYGGGNFHLRPRDLISNINVIVLELKGSETTFMCEYADETATIVEFLNRWITFSQSIISTLTPTSSSTKKTQLQLEHLLLDLQMILNGINNYKNPKLTRMLTFKFYMPKKATELKHLQCLEEELKPLEEVLNLAQSKGGGGDSYMNWYQQKPGKAPKLLIYAASNLESGVPSRFSGSGSGTDFTLTISSLQSEDFATYYCQQSNEDPYTFGGGTKVEIKRTVAAPSVFIFPPSDEQLKSGTASVVCLLNNFYPREAKVQWKVDNALQSGNSQESVTEQDSKDSTYSLSSTLTLSKADYEKHKVYACEVTHQGLSSPVTKSFNRGEC

Kd [3]: 54.1 nM
B2: BFC885 (other)
heavy: QVQLVESGGGVVQPGRSLRLSCAASGYTFSSYLIEWVRQAPGKGLEWVAVINPGSGGTNYADSVKGRFTISADKSKNTAYLQMNSLRAEDTAVYYCARWRGDGYYAYFDVWGQGTTVTVSSASTKGPSVFPLAPSSKSTSGGTAALGCLVKDYFPEPVTVSWNSGALTSGVHTFPAVLQSSGLYSLSSVVTVPSSSLGTQTYICNVNHKPSNTKVDKRV[letters of human IgG1 Fc with changes left out]
light: EIVLTQSPATLSVSPGERATLSCRASQSVSYGGGGSGGGGSGGGNFHLRPRDLISNINVIVLELKGSETTFMCEYADETATIVEFLNRWITFSQSIISTLTPTSSSTKKTQLQLEHLLLDLQMILNGINNYKNPKLTRMLTFKFYMPKKATELKHLQCLEEELKPLEEVLNLAQSKGGGGSGGGGSGGGGDSYMNWYQQKPGQAPRLLIYAASNLASGIPARFSGSGSGTEFTLTISSLQSEDAAVYYCQQSNEDPYTFGGGTKVEIKRTVAAPSVFIFPPSDEQLKSGTASVVCLLNNFYPREAKVQWKVDNALQSGNSQESVTEQDSKDSTYSLSSTLTLSKADYEKHKVYACEVTHQGLSSPVTKSFNRGECRTVAAPSVFIFPPSDEQLKSGTASVVCLLNNFYPREAKVQWKVDNALQSGNSQESVTEQDSKDSTYSLSSTLTLSKADYEKHKVYACEVTHQGLSSPVTKSFNRGEC
notes: Antibody B, IL-2CP in CDR-L1, linkers 13/14 AA
